# The whole screen tested about 310,000 compounds, of which about 2,200 (0.71%) showed an effect of 50% or more. The effect is printed as a negative number. Some of the results follow.
# Biological target: human ether-à-go-go-related gene (hERG) potassium channel (human, UniProt Q12809)
# Test: primary screen, population patch clamp on CHO cells stably expressing hERG
# Sequence of human ether-à-go-go-related gene (hERG) potassium channel (Q12809 whole entry, looked up): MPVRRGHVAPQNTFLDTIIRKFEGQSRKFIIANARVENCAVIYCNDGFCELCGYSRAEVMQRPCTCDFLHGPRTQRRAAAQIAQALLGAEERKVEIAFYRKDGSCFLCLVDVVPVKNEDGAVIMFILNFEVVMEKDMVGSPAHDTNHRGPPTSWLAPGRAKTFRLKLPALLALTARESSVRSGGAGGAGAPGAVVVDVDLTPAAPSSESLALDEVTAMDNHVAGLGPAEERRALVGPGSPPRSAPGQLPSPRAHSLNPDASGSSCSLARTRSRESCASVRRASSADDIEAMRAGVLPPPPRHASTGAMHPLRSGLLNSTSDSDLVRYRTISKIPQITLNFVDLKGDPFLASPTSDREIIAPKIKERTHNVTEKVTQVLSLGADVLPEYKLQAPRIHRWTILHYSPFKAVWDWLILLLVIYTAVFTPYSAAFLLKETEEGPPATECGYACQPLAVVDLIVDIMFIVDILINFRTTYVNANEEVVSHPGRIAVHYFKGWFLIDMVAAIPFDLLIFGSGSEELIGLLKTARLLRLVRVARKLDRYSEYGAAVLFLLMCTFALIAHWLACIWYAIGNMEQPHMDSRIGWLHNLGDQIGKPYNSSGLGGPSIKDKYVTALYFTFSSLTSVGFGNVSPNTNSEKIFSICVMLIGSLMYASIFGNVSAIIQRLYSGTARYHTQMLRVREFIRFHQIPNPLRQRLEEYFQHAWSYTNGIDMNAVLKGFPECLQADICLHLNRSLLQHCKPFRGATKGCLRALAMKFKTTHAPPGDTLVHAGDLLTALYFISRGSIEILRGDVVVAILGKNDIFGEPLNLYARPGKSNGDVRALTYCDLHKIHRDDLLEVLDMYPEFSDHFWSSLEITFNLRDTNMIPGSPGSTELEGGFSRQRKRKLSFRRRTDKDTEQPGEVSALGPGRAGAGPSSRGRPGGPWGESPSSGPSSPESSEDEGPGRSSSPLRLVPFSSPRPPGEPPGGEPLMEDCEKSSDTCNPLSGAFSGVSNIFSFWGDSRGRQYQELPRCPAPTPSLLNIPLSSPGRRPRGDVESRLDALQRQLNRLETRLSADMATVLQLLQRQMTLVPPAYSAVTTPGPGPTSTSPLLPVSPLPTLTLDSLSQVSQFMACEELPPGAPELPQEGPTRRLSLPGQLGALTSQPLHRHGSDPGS
row,Compound,"hERG current change (%, negative = inhibition) at 1uM"
1,COc1ccc(NC(C)=O)cc1NC(=O)CSc1nnc(-c2ccccc2)n1N,15.9%
2,Cc1ccc(C2CC(c3cccc(Br)c3)Nc3nnnn32)cc1 (stereo not shown),-0.515%
3,COC(=O)CN(c1ccc(F)cc1)S(=O)(=O)c1ccccc1,8.4%
4,CCOC(=O)c1sc(N)c(C#N)c1COC(=O)CNC(=O)c1ccccc1,12.2%
5,CCc1cc(CNC(=O)C2CCC(=O)N(Cc3cccc(F)c3)C2)on1 (stereo not shown),2.65%
6,CN(C)CC(O)COc1cccc(OCC(O)CN(C)C)c1.Cl (stereo not shown),9.44%
7,CCCCNC(=O)CSc1nc2cc3c(cc2c(=O)n1CCCC(=O)NCCc1ccc(OC)c(OC)c1)OCO3,7.37%
8,CN1CCN(c2ccc(-c3cccc(NC(=O)COc4ccc(Cl)cc4)c3)nn2)CC1,0.874%
9,O=C(Cn1ncc2ccccc21)N1CCc2ccccc21,7.56%
10,COc1ccccc1N1CCN(C(=O)CNS(=O)(=O)c2ccc(Br)s2)CC1,15.7%
11,O=C(Nc1ccc(Br)cc1)c1cccc(N2C(=O)C3C4CCC(C4)C3C2=O)c1 (stereo not shown),0.527%
12,COC(=O)c1cccc(C(=O)N2CCCC(CNC(=O)c3ccccc3Cl)C2)c1 (stereo not shown),10.5%
13,S=c1[nH]nc(-c2ccco2)n1/N=C/c1cccc(Cl)c1Cl,12.5%
14,CCCCOCCCNC(=O)CN1C(=O)c2ccccc2C1=O,12.5%
15,O=C1C2C3c4ccccc4C(c4ccccc43)C2c2nc3ccccc3n21 (stereo not shown),6.14%
16,CC(C)(C)NC(=O)Cn1c(SCC(=O)Nc2nccs2)nc2ccccc21,10.4%
17,N#Cc1cc([N+](=O)[O-])ccc1NCCc1ccccn1,9.77%
18,COC(=O)c1cccc(Nc2nc(-c3ccncc3)nc3ccccc23)c1,14.8%
19,O=C(c1nnc(-c2ccncc2)o1)c1ccccc1Cl,9.99%
20,CCCNC(=O)c1cc(C)no1,8.61%
21,CCOC(=O)NC(Nc1ccc(OC)cc1)(C(F)(F)F)C(F)(F)F,17.3%
22,C=CCN1C(=O)C2(/C(=C(\O)c3ccc4c(c3)OCCO4)C(=O)C(=O)N2CCCOC)c2ccccc21 (stereo not shown),2.72%

row,Compound,"hERG current change (%, negative = inhibition) at 1uM"
1,Cc1ccc(Cl)cc1N1CCN(S(=O)(=O)c2ccc3c(c2)CC(=O)N3C)CC1,0.913%
2,CCOC(=O)CNc1nc(Cl)nc(Nc2ccc(OC)cc2OC)n1,11.1%
3,COc1ccccc1-c1nnn(C/C(N)=N/O)n1,8.18%
4,O=C(C1CCC1)N1CCC(c2nc3c(nnn3Cc3c(F)cccc3Cl)c(=O)[nH]2)CC1,32.2%
5,Cn1cccc1/C=N/NC(=O)CNc1ccc2ccccc2c1,10.4%
6,S=C(NCc1ccccc1)Nc1ccc2ccccc2c1,11.3%
7,Cc1cccnc1NC(=O)c1ccc(COc2ccccc2)o1,16.5%
8,Fc1ccc(CSc2ccc(-c3ccco3)nn2)cc1,11%
9,O=C(CC12CC3CC(CC(C3)C1)C2)NCc1ccccc1,14.2%
10,CC(=O)N[C@@H](Cc1c[nH]c2ccccc12)C(=O)NCCc1ccc(S(N)(=O)=O)cc1,7.43%
11,Cc1ccc2cc(C#N)c(N3CCN(C(=O)c4ccccc4)CC3)nc2c1,-6.89%
12,Cc1ccc(NC(=S)NCc2ccccc2)cc1[N+](=O)[O-],8.12%
13,CCc1ccc(NC(=O)C(=O)N/N=C(\C)CC(=O)NCc2ccc(Cl)cc2)cc1,11.7%
14,CN(CC(=O)Nc1cccc(F)c1)C(=O)c1ccc2c(=O)n3c(nc2c1)CCC3,14.3%
15,CC(C)(C)OC(=O)NCCCCCc1cn([C@@H](CO)C(=O)NCCCCCCCCCCC(=O)N2CCN(C(=O)OC(C)(C)C)CC2)nn1,6.55%
16,CS(=O)(=O)N1CCC(C(=O)Nc2ccc3c(c2)OCO3)CC1,1.5%
17,COc1ccc(CCN(C)C(=S)Nc2ccc(SC(F)F)cc2)cc1OC,-9.97%
18,CC(=O)O[C@]1(C(C)=O)CC[C@H]2[C@@H]3C=C(C)C4=CC(=O)CC[C@]4(C)[C@H]3CC[C@@]21C,2.98%
19,COc1cc(OC)c(NS(=O)(=O)c2coc(C(N)=O)c2)cc1Cl,14.8%
20,CC(C)(C)C1CCC(C(=O)NCC(c2cccs2)N2CCOCC2)CC1 (stereo not shown),10%
21,CC(C)[C@H](NC(=O)c1ccccc1F)C(=O)Nc1ccc(F)c(F)c1,8.12%

# Reference: PMC4336329 (PLoS ONE, 2015)
